The list shows a part of the results.

Among the data in article PMC12136788 are binding signal values, retold here.

T1: UNK ZnF1-3 (human, UniProt Q9C0B0 31-174)
T1 sequence: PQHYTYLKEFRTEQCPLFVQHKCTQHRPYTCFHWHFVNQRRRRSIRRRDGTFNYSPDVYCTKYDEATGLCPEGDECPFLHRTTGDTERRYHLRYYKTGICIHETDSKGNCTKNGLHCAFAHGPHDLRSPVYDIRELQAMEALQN

B1: chr14:89338683:89338684:+_ENSG00000165533_ENST00000346301|hu_mus|FALSE|FALSE (ssRNA)
RNA: GGGAGUUCUACAGUCCGACGAUCGUGGUUGUUGUGGACCAGGGCCAGCCUGAAGCAUUGGUGGGCCAAGUUUGUAUCUCCGAUUCCCACAGCUAUGUGCCCCAGGUUGUACCAGACAUCAGCUGCCUCUUCUUCAUUUUCAGCCAACAGAGGAUUGAGCAUCA
B2: chr17:74040031:74040032:-_ENSG00000167881_ENST00000307877|hu_mus|FALSE|FALSE (ssRNA)
RNA: GGGAGUUCUACAGUCCGACGAUCGUACAGGACGAGGGCUUCGCUCCACUUCUUCACCAGCACGUAAGACUGAGCAAUGAAGAAACACCUGUAAGCUUUGAACACCAGGGUCUUGAGGCUUAUCUCUUUCUGGAAGGUUCUGUCCAACAGAGGAUUGAGCAUCA
B3: chr16:94651144:94651145:+_ENSMUSG00000040785_ENSMUST00000117648|mus_hu|motif|central (ssRNA)
RNA: GGGAGUUCUACAGUCCGACGAUCAUUUUCUUGAAUCAAGUGGCGAAUAACAUAGUCCACUGCUUCAUUUAGAAAAUUUCUGCGGGAAAAACAGGUUGUAUAGUCUUCUGUGCUCAAAACUUUCCAAGAAAGCAAUUCUUUGAGCAACAGAGGAUUGAGCAUCA
B4: chr12:39763582:39763583:-_ENSG00000139116_ENST00000544797|hu_mus|hu_hu_hu_mus_False|8_78 (ssRNA)
RNA: GGGAGUUCUACAGUCCGACGAUCCUCUAGGAACUGGGCAUUCACUUUGAAUUCAGGAGCAGGAAGCCCGUUUUUAAUCGCUGAGGUCUUUUUCUCAUCAAUACUCUUGAACAGGUGUCUAACAGCACGAGAAAUAAUGCCCUGCAACAGAGGAUUGAGCAUCA
B5: chr11:29408400:29408401:+_ENSMUSG00000032740_ENSMUST00000040182|mus_mus|FALSE|FALSE (ssRNA)
RNA: GGGAGUUCUACAGUCCGACGAUCGUUAAAAACAUAAUCACUUUAUCUUGUAAAUGCUAUUUGCUGGAAAACCAUCUCACUAAAAAAAGUUUCAGAAAAAUGAUUUUAUCUUGGAUCCAUUUGUGAAUACCUAGUGCAGCUUAUCAACAGAGGAUUGAGCAUCA
B6: chr2:198351390:198351391:-_ENSG00000144381_ENST00000345042|hu_hu|hu_hu_hu_mus_False|1_108 (ssRNA)
RNA: GGGAGUUCUACAGUCCGACGAUCUCAUUCUCACUCUCCACAGAAAGGCUGCUUCUGAACUCUCAUGUGGUGACACAGCGCUACAGUCCUGAUGCUCACAGAACAGUAGAGAUGCCUCAGUGAUUUAAGUUGAAAGCAGCAGUACAACAGAGGAUUGAGCAUCA
B7: chr20:57484439:57484440:+_ENSG00000087460_ENST00000306090|hu_hu|FALSE|FALSE (ssRNA)
RNA: GGGAGUUCUACAGUCCGACGAUCGCCACCCACGUCAAACAUGUGGAAGUUGACUUUGUCCACCUGGAACUUGGUCUCAAAGAUUCCAGAAGUCAGGACACGGCAGCGAAGCAGGUCCUGAUCGCUCGGCACAUAGUCAGCCUGCAACAGAGGAUUGAGCAUCA
B8: chr13:77595817:77595818:-_ENSG00000005812_ENST00000355619|hu_mus|FALSE|FALSE (ssRNA)
RNA: GGGAGUUCUACAGUCCGACGAUCACAUCGCCACAAGUCAGGCAUGUGAAAUACCUGAUUCCAAUUCCGGCACACUUGGGAAGCAUGAGCCCGGUCAAGAAGAGGCAAAUACUUAAAAACAUGGAGGACGAUGUCCUGCAGGAGCAACAGAGGAUUGAGCAUCA
B9: chr6:50805741:50805742:+_ENSG00000008196_ENST00000393655|hu_mus|FALSE|FALSE (ssRNA)
RNA: GGGAGUUCUACAGUCCGACGAUCCAGUGAGGUGAGUAACGUGACAUUUGCUGCUUUGCGCCUGCCCGCGGGUAAAUUCAAACCGAUUUUUUCUAGCCUUUCUCUCAAGGAUCUCCCCCCAUUUUUCGAUUUGGCUCUUCUGAGCAACAGAGGAUUGAGCAUCA
B10: chr7:135832278:135832279:+_ENSMUSG00000042105_ENSMUST00000118605|mus_hu|motif|central (ssRNA)
RNA: GGGAGUUCUACAGUCCGACGAUCAAGCUGCUCUAUUCGUUUUUGUUUUCCCGCCACUGGGGCAAGCCCUCCUUCCACACGGUGAAGACGAAAAUUGCCAGCACCACAUGAAGCCCGACCACUGCAACAAUGGUCGCAUAAAAGCAACAGAGGAUUGAGCAUCA
B11: chr8:110352747:110352748:+_ENSG00000120533_ENST00000521662|hu_hu|motif|central (ssRNA)
RNA: GGGAGUUCUACAGUCCGACGAUCCAGGGCUCUGCCUUUUGGAGUGAUUUCAGCCACCAAGUCAUCAACAGUAACGUGUUCGGGUCCUUUUUCUUUAAUUACCUCUUUACAGUGUGCCUUCAACUGAUCCUUCCAGCCACAUUCCAACAGAGGAUUGAGCAUCA
B12: chr4:148551591:148551592:-_ENSMUSG00000063077_ENSMUST00000060537|mus_hu|mus_mus_mus_hu_False|48_108 (ssRNA)
RNA: GGGAGUUCUACAGUCCGACGAUCACCUUACAAAAUUAAAUAUCCCUGUAAAUUAGACAAUAAGCAGCAGGCAACAAAGUCUUUGCUUUGAAAUAUGUGCCAGGAAAAGUCAUCUUGUUUUUAGAUCUCAAGAGACAGUUCACACAACAGAGGAUUGAGCAUCA
B13: chr12:67691335:67691336:+_ENSG00000111530_ENST00000540319|hu_hu|motif|central (ssRNA)
RNA: GGGAGUUCUACAGUCCGACGAUCCAUAGAAUCAUUUUUGGACAACUCUGACAACAGAUGUUCAAUAAGAUCUACAAAAACGGUAUUUCCACAGCUCAUAACCAGAUGGCCAAGAGCGAUAAUGGUUCUUUUCCUCACUGCAAGCAACAGAGGAUUGAGCAUCA
B14: chr8:95500983:95500984:-_ENSG00000164944_ENST00000437199|hu_hu|hu_hu_hu_mus_True|1_88 (ssRNA)
RNA: GGGAGUUCUACAGUCCGACGAUCAGAACACAUCUAUCGAGUAAAGGGAGCGUACAUACGGCCUCUACCACUGCCUCCACUAACAAACUUUCCUCUCGAGCCUCCACUGCCGCUAUUUGUACUAGCCCAGGACGGUCCCAAGUCCAACAGAGGAUUGAGCAUCA
B15: chr9:95013113:95013114:-_ENSG00000196305_ENST00000443024|hu_hu|hu_hu_hu_mus_False|58_68 (ssRNA)
RNA: GGGAGUUCUACAGUCCGACGAUCCUCAGUCAGAAAGGGCGUGUAAGGGGCCAUCAGUCUGCACAGAGAAAGCAGAACACUAAACAAUGUCUCCAGAGCCAUGACACAGUCUUCCACCCCACUCUCACCCUUUAACCUCCUCCUCAACAGAGGAUUGAGCAUCA
B16: chr7:54825262:54825263:-_ENSG00000132432_ENST00000352861|hu_hu|hu_hu_hu_mus_False|28_108 (ssRNA)
RNA: GGGAGUUCUACAGUCCGACGAUCCUGACUUGGCUCAUCCACAAACUGCAUUACCUGAUCCAUGUUUGUUGGAUGGCGGAUUGAGAGCGUAGAGACACGUAGCUCAGGGAGCUUGCUAGCCCAACGGAACCGGAAGCUGGCAACCAACAGAGGAUUGAGCAUCA
B17: chr2:86371542:86371543:-_ENSG00000132305_ENST00000449247|hu_mus|FALSE|FALSE (ssRNA)
RNA: GGGAGUUCUACAGUCCGACGAUCCCAGUCCUGUGCCACUCUUCUGGACUCCCCUUUGAGCUGAUUGACAAACUUUGCUGCCAGCUCCAGGUCACCAUGCUCAAUACAAUAGGAGGCAUAUGAGAGCAAUUUAAAUGUAUUUAUCAACAGAGGAUUGAGCAUCA
B18: chr1:163117127:163117128:-_ENSG00000143248_ENST00000313961|hu_mus|hu_hu_hu_mus_False|18_68 (ssRNA)
RNA: GGGAGUUCUACAGUCCGACGAUCUGCUACAAAGGAUGUAACUCAACUCACAGGGCAACUUUUGGAAGCCUGGCUAAAUGACUACUUGAUUAGCUCCUUAUAAAAUUCAGAGCGCACAAAGCGAGGCAGAGAAUCCUUCUCCAUCAACAGAGGAUUGAGCAUCA
B19: 86293490_86294785_1199_CDS_ENSG00000135018_ENST00000376395|human|control|control (ssRNA)
RNA: GGGAGUUCUACAGUCCGACGAUCUGGAUUCCUGGCAAGUUCCAACGUUUGUCUCAUUAUAUCUGGAUUAUUCAACAUAUGACUAAUUUCUGGAUUUCUCUGUAUCAACUGCUGCAUUUGUGGAUUGGCCAUAAUUAACUGUCUCAACAGAGGAUUGAGCAUCA
B20: chr17:62496873:62496874:-_ENSG00000108654_ENST00000581693|hu_mus|FALSE|FALSE (ssRNA)
RNA: GGGAGUUCUACAGUCCGACGAUCUCCAAUUCGAUGAAUAUAAUCCUCUGAGGAGUUAGGGUAGUCAUAAUUGAUGACAAAUUUCACAUCUUCCACAUCUAGCCCUCUGGAGGCCACAUCGGUAGCAAUCAGAAUAGGAGCUUUCAACAGAGGAUUGAGCAUCA
B21: chr2:42509997:42509998:+_ENSG00000143924_ENST00000318522|hu_mus|hu_hu_hu_mus_True|58_108 (ssRNA)
RNA: GGGAGUUCUACAGUCCGACGAUCUCGCUGAGUUCUCUCCUCAUAAUUAAACAGGACUACCACUGAGGCGAUAAAAUAAACUAUUUUCCCUGUGGGAAGCAGGUAUACAUUCGCUCUACAGUCCUUUCCUCGAUAACCGUAUACCAACAGAGGAUUGAGCAUCA
B22: chr12:16048344:16048345:+_ENSG00000023734_ENST00000419869|hu_hu|hu_hu_hu_mus_True|1_8 (ssRNA)
RNA: GGGAGUUCUACAGUCCGACGAUCAGAUCGUCCAUAAGUAAUAACCAAAAUCUCUCCUUCAGGAAUAUACUCCAUGCUGCUAACAGACAUAUUAAAAUUCAGAGAUUUCACUUCUGUCAUUGUGGCAUGAUCCCAAAGUCGAACCAACAGAGGAUUGAGCAUCA

The test has as its target T1, UNK ZnF1-3. Description: nsRBNS (natural sequence RNA bind-n-seq); RBNS binding buffer (assumed for nsRBNS): 25 mM Tris pH 7.5, 150 mM KCl, 3 mM MgCl2, 0.01% Triton X-100, 500 ug/ml BSA, 20 U/ml SUPERase-In, 4 C; UNK is unkempt and MSI1 is Musashi-1; names of the RNAs are library labels; protein concentration not given here; high values mean tight binding.
In turn, B1 returned a binding signal of 0.718 enrichment R.

With B2, the binding signal amounted to 1.24 enrichment R.

Consider B3, for which the binding signal came to 0.422 enrichment R.

Molecule B4 showed a binding signal of 1.43 enrichment R.

As to B5, the binding signal was 1.11 enrichment R.

In the case of B6, the binding signal worked out at 1.11 enrichment R.

B7 yielded a binding signal of 0.902 enrichment R.

As for B8, the binding signal was 1.55 enrichment R.

B9 yielded a binding signal of 1.01 enrichment R.

B10 showed a binding signal of 1.26 enrichment R.

As to B11, the binding signal came to 0.74 enrichment R.

B12: the binding signal worked out at 1.04 enrichment R.

Molecule B13 yielded a binding signal of 0.807 enrichment R.

Molecule B14 showed a binding signal of 1.47 enrichment R.

Molecule B15 came in with a binding signal of 1.61 enrichment R.

In turn, B16 had a binding signal of 0.674 enrichment R.

For the molecule B17, the binding signal was 1.27 enrichment R.

Take B18: the binding signal was found to be 1.15 enrichment R.

B19 registered a binding signal of 0.779 enrichment R.

B20 had a binding signal of 0.829 enrichment R.

In turn, B21 came in with a binding signal of 1.53 enrichment R.

For the molecule B22, the binding signal stood at 1.08 enrichment R.
